Source: the supplement of paper PMC12217912
Some of the results follow. The full chains were built here from the parent and the listed change. Values near 0.05 are background.

B1: TEV protease; numbered along this chain (parent)
chain: MGESLFKGPRDYNPISSSICHLTNESDGHTTSLYGIGFGPFIITNKHLFRRNNGTLVVQSLHGVFKVKDTTTLQQHLVDGRDMIIIRMPKDFPPFPQKLKFREPQREERICLVTTNFQTKSMSSMVSDTSCTFPSGDGIFWKHWIQTKDGQCGSPLVSTRDGFIVGIHSASNFTNTNNYFTSVPKNFMELLTNQEAQQWVSGWRLNADSVLWGGHKVFMVKPEEPFQPVKEATQL

Variants of: B1
Experiment: raw area under fraction-flipped curve 0-4 h after induction (AUC4h, not background-subtracted), DNA-recorder readout of cleavage of the substrate (dimensionless); higher = more cleavage of the substrate by the protease variant
Conditions: temperature: 34 °C; time window: 0-4 h after rhamnose induction
Description: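 In vivo DNA recorder in E. coli TOP10(DE3) ΔrhaA at 34 °C. Each TEVp single-site mutant (parent TEVp 0) is paired with a single-site variant of the 7-mer TEVs (canonical ENLYFQ|S). The substrate sits between flexible linkers in a Bxb1-sfGFP-TEVs-SsrA fusion, so cleavage stabilises Bxb1 and speeds flipping of a recombination array, read by NGS. The value is the raw area under the fraction-flipped curve over 0-4 h after rhamnose induction (AUC4h), with ≥20 reads per time point. It is not background-subtracted; inactive controls average about 0.047.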
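Also: Bxb1 expression induced with 0.2% (w/v) L-rhamnose at OD600 near 0.5, cultures sampled hourly, flipped fraction per protease–substrate barcode pair counted by paired-end Illumina sequencing.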

Row | Variant | area with substrate CNLYFQS | area with substrate FNLYFQS | area with substrate GNLYFQS | area with substrate HNLYFQS | area with substrate INLYFQS | area with substrate LNLYFQS | area with substrate MNLYFQS | area with substrate NNLYFQS | area with substrate PNLYFQS | area with substrate QNLYFQS
1 | W203K | 0.0705 | 0.0567 | 0.0634 | 0.053 | 0.0557 | 0.0674 | 0.086 | 0.0596 | 0.0517 | 0.0483
2 | Y179W | 0.0486 | – | – | 0.0464 | 0.0449 | – | 0.0571 | – | – | –
3 | E195V | 0.0594 | – | 0.0731 | – | 0.0532 | – | – | – | – | –
4 | E195G | 0.0618 | – | 0.0635 | 0.0596 | – | – | 0.0687 | – | 0.0536 | –
5 | N186Q | 0.0619 | 0.0683 | – | – | 0.0714 | 0.0786 | – | 0.0496 | 0.0608 | –
6 | N186K | 0.101 | 0.0588 | 0.0688 | 0.0577 | 0.0634 | 0.0738 | – | 0.0696 | – | 0.0777
7 | N186I | 0.0522 | – | 0.0766 | 0.0749 | – | – | – | – | 0.0718 | –
8 | N186C | 0.0757 | – | – | – | – | 0.0576 | – | 0.0567 | – | 0.0616
9 | N186S | 0.0821 | 0.0702 | – | – | – | 0.0631 | 0.0767 | – | 0.0643 | –
10 | L190C | 0.0834 | – | 0.0568 | 0.0453 | 0.0461 | – | – | – | – | –
11 | L190S | 0.0688 | 0.0618 | – | – | – | – | 0.0624 | – | – | –
12 | S209L | 0.0834 | – | – | – | – | 0.0617 | – | – | – | –
13 | L205A | 0.0635 | – | – | 0.0604 | – | – | – | – | – | –
14 | L205D | 0.0517 | – | 0.0491 | – | 0.0533 | – | 0.0624 | 0.0556 | – | –
15 | F180Q | 0.0384 | – | – | – | – | – | – | – | – | –
16 | F180D | 0.047 | 0.0577 | 0.0562 | 0.0481 | 0.0561 | – | – | – | 0.0591 | –
17 | F180A | 0.0646 | – | – | – | – | 0.046 | – | 0.051 | 0.08 | –
18 | F187T | 0.0729 | – | – | 0.0791 | – | – | – | 0.0717 | – | –
19 | M188I | 0.0642 | – | – | 0.0662 | – | – | – | – | – | –
20 | E189R | 0.0649 | 0.0674 | – | 0.0446 | 0.0567 | 0.0597 | – | – | – | –
21 | E189H | 0.0798 | 0.0351 | 0.0662 | 0.0672 | 0.0652 | 0.0672 | 0.0784 | – | 0.0681 | 0.0848

Same assay, conditions: temperature: 34 °C; time window: 0-4 h after rhamnose induction

Row | Variant | area with substrate SNLYFQS | area with substrate TNLYFQS | area with substrate WNLYFQS | area with substrate YNLYFQS | area with substrate KNLYFQS | area with substrate VNLYFQS | area with substrate RNLYFQS
22 | W203K | 0.0451 | 0.0628 | 0.056 | 0.0442 | – | – | –
23 | Y179W | 0.0614 | – | – | 0.0657 | – | – | –
24 | E195V | 0.0745 | 0.0528 | 0.0562 | – | – | – | –
25 | E195G | – | 0.0784 | 0.0395 | – | 0.0621 | 0.0773 | –
26 | N186Q | – | – | 0.0766 | – | – | 0.0406 | –
27 | N186K | – | 0.0645 | – | 0.0529 | – | – | –
28 | N186I | – | 0.0462 | – | – | 0.09 | – | –
29 | N186C | – | 0.0643 | 0.0608 | 0.0581 | – | – | –
30 | N186S | 0.0518 | 0.0596 | 0.0685 | – | 0.0525 | 0.0698 | –
31 | L190C | – | 0.112 | 0.0662 | 0.0604 | 0.0641 | 0.0675 | –
32 | L190S | 0.0623 | 0.0618 | 0.0713 | – | 0.0708 | – | –
33 | S209L | 0.0578 | 0.0668 | 0.0654 | – | – | 0.0486 | –
34 | L205A | 0.0514 | – | 0.046 | – | – | – | –
35 | L205D | – | – | 0.0696 | – | – | – | 0.0517
36 | F180Q | – | 0.0536 | – | – | – | – | –
37 | F180D | 0.0369 | 0.0427 | 0.0444 | 0.0473 | – | 0.0618 | –
38 | F180A | 0.104 | 0.0533 | 0.0596 | 0.0512 | 0.0613 | – | 0.0526
39 | F187T | – | 0.0473 | – | – | – | – | 0.0471
40 | M188I | 0.0708 | 0.0678 | 0.065 | 0.0648 | 0.0763 | – | –
41 | E189R | 0.0645 | 0.0608 | 0.0531 | 0.0672 | 0.0745 | 0.0601 | –
42 | E189H | 0.0823 | – | 0.0516 | – | – | – | –
